Experimental data: paper PMC4336329 (PLoS ONE, 2015)
The campaign covered roughly 310,000 compounds. About 14,000 (4.5%) showed an effect of 50% or more. Effects have a minus sign here. The list shows a part of the results.

Target: human ether-à-go-go-related gene (hERG) potassium channel (human, UniProt Q12809)
Experiment: primary screen, population patch clamp on CHO cells stably expressing hERG
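Note: peak tail current of the secondary pulse compared with the same well before compound.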

human ether-à-go-go-related gene (hERG) potassium channel, sequence (Q12809 whole entry, looked up): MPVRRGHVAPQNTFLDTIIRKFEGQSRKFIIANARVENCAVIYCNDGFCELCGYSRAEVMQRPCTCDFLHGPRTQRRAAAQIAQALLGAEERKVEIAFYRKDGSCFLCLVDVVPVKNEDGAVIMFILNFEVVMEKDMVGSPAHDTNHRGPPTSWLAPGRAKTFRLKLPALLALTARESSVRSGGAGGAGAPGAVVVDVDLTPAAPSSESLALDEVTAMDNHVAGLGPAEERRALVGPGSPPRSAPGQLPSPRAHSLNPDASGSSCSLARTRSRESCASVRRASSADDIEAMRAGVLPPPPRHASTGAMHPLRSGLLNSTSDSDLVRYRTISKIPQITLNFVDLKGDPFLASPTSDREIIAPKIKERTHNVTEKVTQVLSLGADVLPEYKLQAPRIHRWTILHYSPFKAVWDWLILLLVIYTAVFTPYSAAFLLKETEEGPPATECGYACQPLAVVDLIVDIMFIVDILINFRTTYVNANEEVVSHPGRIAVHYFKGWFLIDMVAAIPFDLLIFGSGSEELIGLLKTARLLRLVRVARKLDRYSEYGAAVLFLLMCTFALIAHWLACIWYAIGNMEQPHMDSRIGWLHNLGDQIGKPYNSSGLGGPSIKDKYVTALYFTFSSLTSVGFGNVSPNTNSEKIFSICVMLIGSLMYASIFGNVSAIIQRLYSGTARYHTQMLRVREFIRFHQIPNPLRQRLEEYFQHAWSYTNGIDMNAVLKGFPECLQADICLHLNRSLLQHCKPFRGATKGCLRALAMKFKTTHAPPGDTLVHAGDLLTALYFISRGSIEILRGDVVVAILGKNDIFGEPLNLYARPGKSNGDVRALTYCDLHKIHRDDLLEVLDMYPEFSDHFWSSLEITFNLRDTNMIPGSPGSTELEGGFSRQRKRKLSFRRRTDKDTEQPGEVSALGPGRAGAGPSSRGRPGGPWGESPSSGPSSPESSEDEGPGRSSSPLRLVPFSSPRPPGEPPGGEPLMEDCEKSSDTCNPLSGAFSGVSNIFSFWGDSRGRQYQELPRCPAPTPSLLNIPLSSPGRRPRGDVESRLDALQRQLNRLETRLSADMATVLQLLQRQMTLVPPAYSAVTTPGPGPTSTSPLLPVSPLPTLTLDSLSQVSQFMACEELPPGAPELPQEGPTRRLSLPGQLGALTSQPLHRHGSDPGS

Structure (SMILES)	hERG current change (%, negative = inhibition) at 10uM [%]
Cc1sc2nc(CN(C(=O)c3cccs3)C3CCCC3)[nH]c(=O)c2c1C	-6.27
O=C1c2ccccc2C(=O)C1(O)O	19.9
N#Cc1ccc(NC(=O)c2cc(S(=O)(=O)N3CCOCC3)ccc2N2CCCC2)cc1	-80.4
Cc1ccnc(NC(=O)/C=C/c2ccccc2Cl)c1	1.32
O=C(NCC1COc2ccccc2O1)c1cn(Cc2ccc(F)cc2)nn1 (stereo not drawn)	-1.37
COCCCNC(=O)c1c(N)n(/N=C/c2cccnc2)c2nc3ccccc3nc12	10.1
Cc1ccc(NC2c3ccccc3C(=O)N2c2cccnc2)cc1 (stereo not drawn)	-21.5
CC(NC(=O)C(NS(=O)(=O)c1cccs1)C(C)C)c1ccc(S(N)(=O)=O)cc1 (stereo not drawn)	5.75
O=C1Nc2ccccc2OC1CC(=O)N1CCN(c2cccc(C(F)(F)F)c2)CC1 (stereo not drawn)	-44.2
COc1ccc(C)cc1NC(=O)CSc1nnc(COc2ccccc2)n1Cc1ccco1	-9.46
C[C@H](NC(=O)c1ccco1)C(=O)NCc1cccs1	8.43
C=CCc1cc(Cl)ccc1OCCNCCN1CCOCC1.O=C(O)C(=O)O	-46.5
O=C(NC1CCCC1)c1ccc(CSc2nc3ccncc3n2Cc2ccc(F)cc2)cc1	-40.7
CCN(CC)C(=O)c1cccc2nc3ccccc3nc12	7.06
COCCCNC(=S)NNC(=O)c1cc(-c2ccncc2)nc2ccccc12	0.914
O=C1CCCC2=C1C1(O)C(=O)c3ccccc3C1(O)O2 (stereo not drawn)	3.16
CCN(C(=O)c1ccc(Br)cc1)c1ccccc1	-20.2
CCOc1ccccc1N1CN(C2CCCCC2)CNC1=S	14.2
COc1ccc(C(=O)Nc2cc(=O)n(C)c(=O)n2C)cc1OC	16
O=C(CN1CCN(Cc2ccccc2Cl)CC1)N=Nc1c(O)[nH]c2ccccc12	-61.3
CCn1c(=O)c(C(=O)NCc2ccccc2OC)c(O)c2ccccc21	21.1
Cc1cc2c(c(SCC(=O)Nc3ccc(C)c(C)c3)n1)C(=O)OC2	15.1

Structure (SMILES)	hERG current change (%, negative = inhibition) at 10uM [%]
Cc1ccccc1S(=O)(=O)Cc1ccc(C(=O)N(C)C2CCCCC2)o1	-12.5
C/C(=N/NS(=O)(=O)c1ccc(C)cc1)c1c(O)c2ccccc2oc1=O	4.66
COc1cc(NC(=O)NC(C)(C(F)(F)F)C(F)(F)F)cc(OC)c1OC	6.41
O=C(O)CCCCNS(=O)(=O)/C=C/c1ccccc1	13
O=C(COC(=O)C12CC3CC(CC(C3)C1)C2)Nc1nc2c(F)c(F)c(F)cc2s1	28.8
O=C1c2cccc3c(N4CCCCC4)ccc(c23)C(=O)N1c1ccccc1O	8.38
COc1ccc(NC(=O)Nc2ccccc2C(N)=O)cc1	19.2
C/C=C/C(=O)OCC(=O)Nc1ccc(OC)c(Cl)c1	-2.84
Cc1cccc(N(Cc2cc3ccccc3[nH]c2=O)C(=O)c2cccs2)c1	14.7
C#CCSc1ncc(S(=O)(=O)c2ccccc2)c(=O)[nH]1	6.67
CN(C(=O)COC(=O)c1cc2ccccc2cc1O)C1CCCCC1	-4.72
O=C(O)CCCC(=O)N1N=C(c2c(-c3ccccc3)c3cc(Cl)ccc3[nH]c2=O)CC1c1cccs1 (stereo not drawn)	23.2
COc1ccccc1NS(=O)(=O)c1cccc2nsnc12	-5.87
O=C(O)c1ccc(-[n+]2c(-c3ccccc3)cc(-c3ccccc3)cc2-c2ccccc2)cc1.[O-][Cl+3]([O-])([O-])[O-]	14.8
Cc1ccc(-c2nnc(N3CCN(C(=O)COc4cccc(C)c4)CC3)c3ccccc23)cc1	-54.6
O=C(c1ccc(F)cc1F)C1CCN(c2ccc([N+](=O)[O-])cn2)CC1	-3.73
CCc1ccccc1-n1c(SCC(=O)N2CCCC2)nc2[nH]ncc2c1=O	-13.1
CCC(c1nnnn1Cc1ccc(OC)cc1)N(CCCO)Cc1cc2cc3c(cc2[nH]c1=O)OCO3 (stereo not drawn)	-5.01
CC(=O)NCC(=O)N(Cc1ccco1)C1(C(=O)NC2CCCC2)CCCCC1	4.93
CCCCCOc1ccc(OC(=O)c2ccncc2)cc1	11.5
COc1ccc(N(CC(=O)Nc2c(C)cccc2C)S(=O)(=O)c2ccccc2[N+](=O)[O-])c(OC)c1	5.86
Cc1cccc(NS(=O)(=O)c2ccc(C)c(C(=O)N(C)C)c2)c1	2.28

Structure (SMILES)	hERG current change (%, negative = inhibition) at 10uM [%]
CC(C)(C)C1CCC(=NNS(=O)(=O)c2ccc(Br)cc2)CC1 (stereo not drawn)	1.2
CCNC(=O)NC(=O)C(C)OC(=O)CCCSc1nc2ccccc2s1 (stereo not drawn)	-2.79
CC(=O)Nc1ccc(S(=O)(=O)N2CCN(c3nc4ccccc4n3CC(C)C)CC2)cc1	-30.9
CCCN(CCC)S(=O)(=O)c1ccc(C(=O)Nc2ccc(OCC(=O)N3CCOCC3)cc2)cc1	-4.31
O=C1C2CCCC1C([NH+]1CCCC1)CC2.[Cl-] (stereo not drawn)	11.2
O=C(CN1C(=O)NC2(CCOc3ccccc32)C1=O)c1ccc(F)cc1 (stereo not drawn)	-23.5
COc1ccccc1-n1cnc2sc(-c3ccccc3)cc2c1=O	10.4
COCCSc1ccccc1C(=O)N1CCN(Cc2ccc3c(c2)OCO3)CC1	0.984
Cc1cc(C)c(C)c(S(=O)(=O)N2CCN(C(=O)c3ccccc3OCc3c(C)noc3C)CC2)c1C	-12.4
CCC(C)(C)c1ccc(Oc2ccc(NC(=O)COC(=O)C3=COCCO3)cc2)cc1	4.67
Cc1ccc(C(=O)N/C(=C/c2ccc(-c3ccc([N+](=O)[O-])cc3)o2)C(=O)NCCCN(C)C)cc1	-73.7
Cc1cc(C)c(C)c(S(=O)(=O)N2CCC(C(=O)N3CCCCCCC3)CC2)c1C	-11.8
COc1ccc(C(N)=O)cc1NC(=O)c1cccc(F)c1	18.9
CCN(C(=O)COC(=O)c1cc(S(=O)(=O)N2CCOCC2)ccc1F)C1CCS(=O)(=O)C1 (stereo not drawn)	10.9
COc1cc(/C=C(\C#N)C(=O)N2CCOCC2)ccc1OCc1ccccc1	22.9
Cc1cc(NC(=O)c2ccccc2Cl)c(C(C)C)cc1O	3.9
COc1ccc(-n2c(C)nnc2SCC(=O)Nc2ccccc2F)cc1	24.8
CCOC(=O)c1[nH]ncc1[C@@H]1C[C@H]2CN(Cc3cccc(Cl)c3)C(=O)[C@]23CCCN13	-27.4
Cc1nc2ccc(-n3ccc(=O)cc3)cc2s1	8.37
CCOc1ccc(NC(=O)CN(C)C(=O)CSCc2ccc(C)cc2)cc1OCC	-20.1
O=C(O)CSc1c2c(nc3cc(C(=O)Nc4cccc(C(F)(F)F)c4)ccc13)CCCC2	22.1
COc1ccc(-n2nnnc2SCC(=O)Nc2cccc(C)n2)cc1OC	4.02

Structure (SMILES)	hERG current change (%, negative = inhibition) at 10uM [%]
O=C(Nc1ccc(Oc2ccc(Cl)cc2)cc1)c1ncn[nH]1	16.4
CC(=O)N(C(C)=O)N1C(=O)C2C3c4ccccc4C(c4ccccc43)C2C1=O (stereo not drawn)	-47.6
Cl.NN=C(N)N	5.42
COc1cc(-c2[nH]nc3c2C(c2ccoc2)C(C#N)=C(N)O3)cc(OC)c1OC (stereo not drawn)	-11.6
Cc1ccn2c(NC3CCCC3)c(-c3cccs3)nc2c1.Cl	-15.4
COc1ccc(-c2cc(C(F)(F)F)c(C#N)c(SCC(=O)O)n2)cc1OC	16
COc1ccc(C(=O)Nc2ccccc2N2CCCCC2)cc1[N+](=O)[O-]	-7.54
CCOC(=O)C/C(N)=N/NC(=O)c1ccc(Cl)cc1Cl	39.1
CC(OC(=O)C1=COCCO1)C(=O)Nc1ccc(Oc2ccccc2)cc1 (stereo not drawn)	-5.61
O=C(CSc1nnc(-c2cccs2)o1)OCc1ccccc1	8.91
O=C(CSc1ccccc1)N1CCN(c2ccccc2)CC1	-22.3
Cc1ccc(OCC(=O)OCC(=O)NC2CC2)cc1C	4.09
COc1cc(OC)c(C(=O)COc2ncnc3ccccc23)c(OC)c1	-1.26
CC(=O)Nc1c(C)nn(C(C)=O)c1C	16.4
Brc1ccccc1-c1nnc(COc2ncnc3ccccc23)o1	-8.52
CC1(C)Cc2ccccc2-c2nc3n(c(=O)c21)CCCS3	12.8
Cc1cc(C)cc(OCCNC(=O)c2cc(S(=O)(=O)N3CCOCC3)ccc2F)c1	-30.2
CC(=O)N1CCN(c2ccc(NC(=O)c3cccc(C)c3)cc2)CC1	18.5
CS(=O)(=O)c1ccc(NCCc2ccc(S(N)(=O)=O)cc2)c([N+](=O)[O-])c1	-10.6
CCOC(=O)C1C(=O)NC(N2CCOCC2)=NC1C(C)C (stereo not drawn)	6.96
Cc1cccc(N(CC(=O)NC2CCCCC2)C(=O)c2csnn2)c1	7.69
